Hit rate of the full screen: of about 39,000 compounds, about 220 (0.56%) showed activity. The list shows a part of the results.
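Also: static incubation at 37 °C against the wild-type strain, values averaged over two biological replicates.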

In this test the test system is Escherichia coli K-12 BW25113. In words: relative growth (OD600 normalised to plate interquartile mean) (fraction); higher = less growth inhibition, active = 0.2 or less. The settings on record: 50 µM; LB; incubation time: overnight (16-24 h).
As to `CCN(CC)C(=O)c1ccc(O)c(OC)c1`, the relative growth was inactive: 1.12. For `C/C=C/c1ccc([C@@H]2[C@H](CO)N(S(=O)(=O)CC)C23CN(C(=O)CN(C)C)C3)cc1` the value was inactive: 0.982; for `COc1cc([C@@H]2[C@H]3CO[C@@]4(O)C(=O)[C@@H]2C=C([C@H]2Oc5cc(O)cc(O)c5C(=O)[C@@H]2O)[C@@H]34)ccc1O`, inactive: 1.01.

With `COCCNC(=O)C[C@H]1C[C@@H]2c3cc(NC(=O)COC)ccc3O[C@@H]2[C@H](CO)O1`, the relative growth is inactive: 0.884. Regarding `Cc1noc(C)c1S(=O)(=O)N(C)C[C@H]1OCCCC[C@H](C)Oc2ccc(N(C)C)cc2C(=O)N([C@H](C)CO)C[C@@H]1C`, the relative growth was inactive: 1.01. In the case of `CCC1(O)CC2CN(CCc3c([nH]c4ccccc34)C(C(=O)OC)(c3cc4c(cc3OC)N(C=O)C3C(O)(C(=O)OC)C(OC(C)=O)C5(CC)C=CCN6CCC43C65)C2)C1.O=S(=O)(O)O` (stereo unspecified), the relative growth was inactive: 1.08.

For the compound `COc1cccc(-c2cnc3c(c2)C(=O)N([C@H](C)CO)C[C@H](C)[C@H](CN(C)S(=O)(=O)c2cccc(F)c2)O3)c1`, the relative growth is inactive: 1.01. For `C[C@H](CO)N1C[C@H](C)[C@H](CN(C)S(=O)(=O)c2ccc(F)cc2)OCCCC[C@H](C)Oc2ccc(NC(=O)Nc3ccc(C(F)(F)F)cc3)cc2C1=O` the value was inactive: 1.04. Take `CCCNC(=O)[C@@]1(Sc2ccc(C)cc2)CC(=O)N(Cc2cc(C(F)(F)F)cc(C(F)(F)F)c2)[C@@H]1c1ccc(CO)cc1`: the relative growth is inactive: 1.01. On to `C[C@@H]1CN([C@@H](C)CO)C(=O)c2cc(NS(=O)(=O)c3ccc(F)cc3)ccc2O[C@@H](C)CCCCO[C@@H]1CN(C)C(=O)c1ccccc1`, for which the relative growth is inactive: 0.987. The figure for `Cc1ccc(S(=O)(=O)N[C@H]2CC[C@@H](CC(=O)N3CCC(Cc4ccccc4)CC3)O[C@H]2CO)cc1` is inactive: 0.998; for `CC1(C)S[C@@H]2[C@H](NC(=O)[C@H](N)c3ccccc3)C(=O)N2[C@H]1C(=O)OCOC(=O)[C@@H]1N2C(=O)C[C@H]2S(=O)(=O)C1(C)C` it is active: 0.107; for `Cc1noc(C)c1NC(=O)N(C)C[C@H]1Oc2ccc(NS(=O)(=O)c3cn(C)cn3)cc2CC(=O)N([C@H](C)CO)C[C@H]1C` it is inactive: 1.01.

`CCCc1nc(C(C)(C)O)c(C(=O)O)n1Cc1ccc(-c2ccccc2-c2nn[nH]n2)cc1`: the relative growth was inactive: 1.08.

`O=C(c1ccc(F)cc1)C1CCN(CCn2c(=O)[nH]c3ccccc3c2=O)CC1`: the relative growth was inactive: 0.928. The figure for `O=C(C[C@H]1CC[C@H]2[C@@H](COC[C@@H](O)CN2S(=O)(=O)c2ccc(Cl)cc2)O1)NCCN1CCCC1` is inactive: 1.01; for `COc1ccc(NC(=O)N(C)C[C@@H]2OCCCC[C@@H](C)Oc3ccc(NC(=O)Cc4ccccc4)cc3C(=O)N([C@H](C)CO)C[C@@H]2C)cc1` it is inactive: 0.996; for `NCc1cnc(Nc2ccccc2)nc1` it is inactive: 0.958.

Turning to `O=C(CCCCCCC(=O)N/N=C/[C@H](O)[C@@H](O)[C@@H](O)[C@H](O)C(=O)O)NO`, the relative growth was inactive: 0.991. For `O=C(O)/C=C\C(=O)Nc1cccc(C(=O)O)c1`, the relative growth is inactive: 0.98. For `C[C@@H]1CN([C@H](C)CO)C(=O)c2cc(/C=C/c3ccccc3)cnc2O[C@@H]1CN(C)C(=O)CN1CCOCC1` the value was inactive: 1.02; for `C[C@H](O)C#Cc1ccc2c(c1)O[C@H](CN(C)C(=O)c1ccncc1)[C@H](C)CN([C@@H](C)CO)S2(=O)=O`, inactive: 1.02; for `CCNC(=O)C[C@H]1CC[C@@H]2[C@H](COc3ccc(NS(=O)(=O)c4ccccc4C)cc3C(=O)N2C)O1`, inactive: 1. With `C[C@H](CO)N1C[C@H](C)[C@@H](CN(C)Cc2ccc3c(c2)OCO3)Oc2ccc(NC(=O)C3CC3)cc2CC1=O`, the relative growth was inactive: 1.01.

Regarding `CC[C@@H](O)C#CCN1CCN(C)CC1`, the relative growth is inactive: 0.927. The figure for `NC(=O)Cn1nnc(-c2ccccc2)n1` is inactive: 0.979; for `COc1ccc(S(=O)(=O)N(C)C[C@H]2Oc3ncc(-c4ccncc4)cc3C(=O)N([C@H](C)CO)C[C@@H]2C)cc1` it is inactive: 0.992; for `C[C@H]1CCCCO[C@@H](CN(C)C(=O)Nc2ccccc2)[C@@H](C)CN([C@@H](C)CO)C(=O)c2cc(NC(=O)Nc3ccc(C(F)(F)F)cc3)ccc2O1` it is inactive: 1.04. Consider `CC(C)NC(=O)N(C)C[C@@H]1OCc2cnnn2CCCC(=O)N([C@@H](C)CO)C[C@H]1C`, for which the relative growth is inactive: 0.98.

`C[C@@H]1CN([C@@H](C)CO)C(=O)Cc2cc(NC(=O)Cn3cnnn3)ccc2O[C@H]1CN(C)CC1CCCCC1`: the relative growth was inactive: 1.

For `C[C@H](CO)N1C[C@H](C)[C@@H](CN(C)Cc2ccc3c(c2)OCO3)Oc2c(NC(=O)C3CC3)cccc2C1=O`, the relative growth is inactive: 0.99. With `C[C@H]1CCCCO[C@@H](CN(C)C(=O)NC2CCCCC2)[C@@H](C)CN([C@@H](C)CO)C(=O)c2cc(NS(=O)(=O)c3cccs3)ccc2O1`, the relative growth was inactive: 1.02. For the compound `Cn1cc(S(=O)(=O)Nc2ccc3c(c2)OCCO3)c(=O)n(C)c1=O`, the relative growth was inactive: 0.989.

Consider `Cc1noc(C)c1S(=O)(=O)Nc1ccc2c(c1)C(=O)N([C@@H](C)CO)C[C@@H](C)[C@@H](CN(C)C(=O)Nc1ccc(C(F)(F)F)cc1)OCCCC[C@H](C)O2`, for which the relative growth is inactive: 1.01.

Consider `COc1ccc(NC(=O)N(C)C[C@H]2OCc3ccccc3-c3c(n(C)c4ccccc34)C(=O)N([C@@H](C)CO)C[C@H]2C)c(OC)c1`, for which the relative growth is inactive: 0.987. With `Cc1ccc(/C=C(\CCC(=O)O)c2nc3ccccc3s2)cc1`, the relative growth was inactive: 1. For `Cc1ccc(S(=O)(=O)N(C)C[C@H]2Oc3ncc(Br)cc3C(=O)N([C@H](C)CO)C[C@H]2C)cc1` the value was inactive: 1.01; for `COc1ccccc1NC(=O)N(C)C[C@H]1Oc2ncc(Br)cc2C(=O)N([C@H](C)CO)C[C@H]1C`, inactive: 1; for `Cn1cnc(S(=O)(=O)N2C[C@H](O)COC[C@@H]3O[C@H](CC(=O)NC4CCCC4)CC[C@H]32)c1`, inactive: 1.02. Take `COc1ccc(NC(=O)N(C)C[C@H]2OCCCC[C@H](C)Oc3ccc(NC(=O)Nc4c(C)noc4C)cc3C(=O)N([C@H](C)CO)C[C@@H]2C)cc1`: the relative growth is inactive: 0.994. For the compound `CC(C)C#Cc1cnc2c(c1)C(=O)N([C@H](C)CO)C[C@@H](C)[C@@H](CN(C)C(=O)c1ccc3c(c1)OCO3)O2`, the relative growth was inactive: 0.996. The figure for `O=C(CN1CCOCC1)N[C@@H]1CC[C@H](CCNC(=O)C2CCCCC2)O[C@H]1CO` is inactive: 1. `O=c1ccn([C@@H]2O[C@H](COP(=O)(O)OP(=O)(O)OP(=O)(O)O)[C@@H](O)[C@H]2O)c(=O)[nH]1`: the relative growth is inactive: 0.988. With `C[C@H](CO)N1C[C@H](C)[C@H](CN(C)Cc2ccc(Cl)c(Cl)c2)Oc2c(NC(=O)c3nc4ccccc4s3)cccc2C1=O`, the relative growth is inactive: 1. For the compound `Cc1ccc(C(=O)C(C)CN2CCCCC2)cc1.Cl` (stereo unspecified), the relative growth is inactive: 0.99. For `C[C@H]1CN([C@@H](C)CO)C(=O)CCCn2cc(nn2)CO[C@H]1CN(C)S(=O)(=O)c1ccc2c(c1)OCCCO2` the value was inactive: 0.975; for `C[C@@H]1CN([C@H](C)CO)C(=O)c2cc(NC(=O)c3ccccc3)ccc2O[C@@H](C)CCCCO[C@@H]1CN(C)Cc1ccc(C(F)(F)F)cc1`, inactive: 1.04. In the case of `CCCNC(=O)N1C[C@@H](C)[C@H](OC)CN(C)C(=O)c2cc(NS(=O)(=O)CC(F)(F)F)ccc2OC[C@@H]1C`, the relative growth is inactive: 0.989. Turning to `C[C@@H]1CN([C@H](C)CO)C(=O)c2cc(NC(=O)Nc3ccc(C(F)(F)F)cc3)ccc2O[C@@H](C)CCCCO[C@H]1CN(C)S(=O)(=O)c1ccc(Cl)cc1`, the relative growth is inactive: 1.03. The figure for `Cc1noc(C)c1NC(=O)N(C)C[C@@H]1Oc2c(NS(=O)(=O)c3ccccc3)cccc2C(=O)N([C@@H](C)CO)C[C@@H]1C` is inactive: 1; for `C[C@H](CO)N1C[C@H](C)[C@H](CN(C)C)Oc2cc(C#C[C@@H](C)O)ccc2S1(=O)=O` it is inactive: 0.994.

With `C[C@@H](NC(=O)N(C)C[C@@H]1OCc2ccccc2-c2c(n(C)c3ccccc23)C(=O)N([C@@H](C)CO)C[C@@H]1C)c1ccccc1`, the relative growth was inactive: 1. As for `O=C(C[C@@H]1C=C[C@H](NC(=O)Nc2ccc3c(c2)OCO3)[C@@H](CO)O1)NCCCN1CCOCC1`, the relative growth is inactive: 0.934. For `C[C@]12C=C[C@]3(CN(C4CC4)C(=O)C3[C@@H]1C(=O)O)O2` (stereo partly specified), the relative growth was inactive: 0.998. As to `CO[C@@H](CN(C)C(=O)c1ccc2c(c1)OCO2)[C@H](C)CN([C@H](C)CO)S(=O)(=O)c1ccc(C)cc1`, the relative growth was inactive: 1.02. For `C[C@@H]1CN([C@@H](C)CO)C(=O)c2cc(NS(=O)(=O)c3ccccc3)ccc2O[C@@H](C)CCCCO[C@@H]1CN(C)Cc1ccccc1`, the relative growth was inactive: 0.992.

For `C[C@H](CO)N1C[C@H](C)[C@@H](CN(C)Cc2cccc(C(=O)O)c2)Oc2ncc(C#CCN(C)C)cc2C1=O`, the relative growth was inactive: 0.986.

On to `CO[C@H]1O[C@H](CO)[C@@H](OC(=O)Nc2ccccc2-c2ccccc2)[C@H](OC(=O)Nc2ccccc2)[C@@H]1OC(=O)Nc1ccccc1`, for which the relative growth was inactive: 1.03. As to `C[C@@H]1CCCCO[C@@H](CN(C)C(=O)Nc2ccc(F)cc2)[C@H](C)CN([C@@H](C)CO)C(=O)c2cc(NS(=O)(=O)c3cccs3)ccc2O1`, the relative growth was inactive: 1.02. For the compound `C[C@@H]1CN([C@@H](C)CO)C(=O)c2cc(NC(=O)Nc3ccc4c(c3)OCO4)ccc2O[C@@H]1CN(C)S(C)(=O)=O`, the relative growth was inactive: 0.924.

On to `C[C@@H]1CCCCO[C@H](CN(C)S(=O)(=O)c2cn(C)cn2)[C@H](C)CN([C@H](C)CO)C(=O)c2cc(N(C)C)ccc2O1`, for which the relative growth is inactive: 1.

Source of the values: the supplement of paper PMC9446081.
